Data on 84 variants can be found in the RNAGym collection of RNA variant scans (doi:10.1073/pnas.2313332121).

This sample is rich in variants without activity.

First the molecules themselves.
B1: TPR 5TU (parent)
chain: GGAUCUUCUCGAUCUAACAAAAAAGACAAAUCUGCCACAAAGCUUGAGAGCAUCUUCGGAUGCAGAGGCGGCAGCCUUCGGUGGCGCGAUAGCGCCAACGUUCUCAACUAUGACACGCAAAACGCGUGCUCCGUUGAAUGGAGUUUAUCAUG

In this data set the parent is B1. The data set is described as follows: polymerase ribozyme fitness, log enrichment relative to wild type (log ratio); higher = more active; in vitro selection for triplet polymerase activity. In outline: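 Mutant libraries for each subunit of a heterodimeric triplet polymerase ribozyme were made by PCR and then transcribed. Each library underwent one round of in vitro selection in triplicate: annealing with a biotinylated primer, the partner subunit and triplets, frozen incubation at −7 °C, gel excision of extended constructs, streptavidin-bead capture and RT-PCR. Input and output libraries were Illumina-sequenced, and only genotypes with ≥10 input reads and ≥1 read per output were kept. Fitness is the logarithm, base 2, of genotype enrichment over wild-type enrichment, computed from inverse-variance-weighted replicate averages.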
With A30U C93U C95U A150U, the “polymerase ribozyme fitness (log ratio)” value was ≤ -4.2.
As for A29U U53A U102G G126A, the “polymerase ribozyme fitness (log ratio)” value is ≤ -4.2.
In the case of A30C C76A C87G U151A it was ≤ -4.2; in that of A30U A52U C79G G94U, ≤ -4.2; in that of A29U G50C A52C A64C U77C G92C G94A C95A A115C U139G, ≤ -4.2.
A30G G59A C76A C118G A120U: the “polymerase ribozyme fitness (log ratio)” value was ≤ -4.2.
The result for A30U G50C G68A C95U U101G U144C reads ≤ -4.2.
A30C U33A G68U A73U C95A C114A A121G: the “polymerase ribozyme fitness (log ratio)” value was ≤ -4.2.
In the case of A30U G46C A64G C75U G117U A121C A142U it was ≤ -4.2; in that of A29U G92U, ≤ -4.2.
As to A30U A52G C54A C69U C75G G86C, the “polymerase ribozyme fitness (log ratio)” value is ≤ -4.2.
Turning to A30G C85U A150G, the “polymerase ribozyme fitness (log ratio)” value is ≤ -4.2.
For the variant A30G G86A, the “polymerase ribozyme fitness (log ratio)” value is -3.45.
In the case of A30U C38A C51A C75U C93A C95U it was ≤ -4.2; in that of A30C A47U C57A C76G G86A C114A, ≤ -4.2; in that of A30G C87U C103U, ≤ -4.2.
In the case of A30G C87U C96A it was ≤ -4.2.
Regarding A29U G34A U44A A60G A91C, the “polymerase ribozyme fitness (log ratio)” value is ≤ -4.2.
Regarding A30C U56C G58C G80C A89U A110U U148A, the “polymerase ribozyme fitness (log ratio)” value was ≤ -4.2.
Regarding A30U A40U A52G A60U G83A A115U C116U, the “polymerase ribozyme fitness (log ratio)” value is ≤ -4.2.
The result for A30U G46U A47G A60G C69A A89U reads ≤ -4.2; that for A30U C54U U77C G83A A119U U144A, ≤ -4.2.
The result for A30G C75G C87G reads ≤ -4.2; that for A30G C95G, -3.11; that for A30C A97U G128A C132G, ≤ -4.2.
In the case of A30C C96G, the “polymerase ribozyme fitness (log ratio)” value was -4.03.
The result for A30U A60G G88A C95U A121G U134A reads ≤ -4.2; that for A30G C43A C93A C116A G133U A142C U146G A147G, ≤ -4.2; that for A29U C85G C129A G141C, ≤ -4.2.
The result for A29U C96U G136U reads ≤ -4.2; that for A29U G42C G48U U61A C93U G126A G143U, ≤ -4.2.
Consider A29U G70U G71A C87U U90A A106U, for which the “polymerase ribozyme fitness (log ratio)” value was ≤ -4.2.
In the case of A29U G100C U151G it was ≤ -4.2.
In the case of A30G C32A C43A C93A C105A it was ≤ -4.2; in that of A30C C54G C87U, ≤ -4.2; in that of A30G C51A U55C U82A G94C C103G U109A C116A, ≤ -4.2.
A29U C87G C95U C131A G143C: the “polymerase ribozyme fitness (log ratio)” value was ≤ -4.2.
For A29U G67A G74C C79A A91C A107G U109A C116A G141U, the “polymerase ribozyme fitness (log ratio)” value is ≤ -4.2.
In the case of A30G U53A G62U A64G, the “polymerase ribozyme fitness (log ratio)” value is ≤ -4.2.
As to A30U A52U C75U A97U G143C, the “polymerase ribozyme fitness (log ratio)” value was ≤ -4.2.
With A30C A52C C85U C99A A115U C131U G141C, the “polymerase ribozyme fitness (log ratio)” value was ≤ -4.2.
In the case of A30G G46U G68U A147C it was ≤ -4.2.
The result for A29U G74U U90C C96U A120U reads ≤ -4.2; that for A30G G50U U55A A97U C131G U144G, ≤ -4.2; that for A30C C57U G59C G80A, ≤ -4.2.
For the variant A29U C95A, the “polymerase ribozyme fitness (log ratio)” value was -3.68.
In the case of A30G C95G U134A it was ≤ -4.2; in that of A30U G48C, ≤ -4.2.
For the variant A30C C75U C114U G126A G141C, the “polymerase ribozyme fitness (log ratio)” value was ≤ -4.2.
Take A30C U33C G67A C93G A119U: the “polymerase ribozyme fitness (log ratio)” value was -3.89.
In the case of A29U G58U C79G C99U G141C it was ≤ -4.2; in that of A30G C32G U56A C57G G86U A142G, ≤ -4.2; in that of A30G A39U A52G U55G, -4.08.
As to A29U U55A C114U A137U U139G A150C, the “polymerase ribozyme fitness (log ratio)” value is ≤ -4.2.
In the case of A29U G58A G92U C99U G141C it was ≤ -4.2; in that of A29U C99U A106G, ≤ -4.2.
Regarding A30C A41C C57A G62C G92A C131G, the “polymerase ribozyme fitness (log ratio)” value is ≤ -4.2.
In the case of A29U G59A G140A it was ≤ -4.2.
As for A30C A41C C43U U53A C93U C125U A137G, the “polymerase ribozyme fitness (log ratio)” value is ≤ -4.2.
As for A30C A41C G67C G83U G88U G141A, the “polymerase ribozyme fitness (log ratio)” value is ≤ -4.2.
In the case of A30U G46A A73G G83A A89G C105G A107U, the “polymerase ribozyme fitness (log ratio)” value was ≤ -4.2.
The result for A30G C51A U55A U56A G74C C76U U102A G117A reads ≤ -4.2.
In the case of A30U G34C A60G C95G A107U, the “polymerase ribozyme fitness (log ratio)” value was ≤ -4.2.
For A30U G50A G74A C79U G92U C93A A107U, the “polymerase ribozyme fitness (log ratio)” value is ≤ -4.2.
In the case of A30C C36G U77G C116U C125U G133C it was ≤ -4.2; in that of A30G A60U C85A C95A C96A C125U A150C, ≤ -4.2; in that of A29U G80A C85G A121U G140C, ≤ -4.2.
As to A30U C93A A121C A138G G141A G152U, the “polymerase ribozyme fitness (log ratio)” value is ≤ -4.2.
Consider A29U G58U U61A U82A G86A A119G, for which the “polymerase ribozyme fitness (log ratio)” value is ≤ -4.2.
In the case of A30C C57U G81C C87G A97U U109G G141A it was ≤ -4.2.
For the variant A30G A52G G100A C103A C114U G117A G140U, the “polymerase ribozyme fitness (log ratio)” value is ≤ -4.2.
In the case of A30C C87U C99G G143U A150G G152C it was ≤ -4.2; in that of A29U C85A, ≤ -4.2.
The result for A30U A52C G67A G68A C87U A91G C95G U127C G143U U148G reads ≤ -4.2; that for A30G C87U G141U, ≤ -4.2; that for A30G G68U A97G C103A U109C G133U, ≤ -4.2.
The result for A29U U33C A52C G86A reads ≤ -4.2; that for A29U U33C G94U C105U U111C G136A, ≤ -4.2; that for A30U G42C U55G G83C C87U A91C, ≤ -4.2.
With A30G G50C C76U C103G, the “polymerase ribozyme fitness (log ratio)” value is ≤ -4.2.
The result for A29U U31G U55A A64C G84A C125U reads ≤ -4.2; that for A30C A52C G83U G84C U135A G141C, ≤ -4.2.
In the case of A29U G86A C87U C105A C116A U146A it was ≤ -4.2; in that of A30G A66G C108G, ≤ -4.2.
